For this series the following is noted: in water at 50° C. for 3 days.

Consider `O=P([O-])([O-])O[C@H]1[C@H](OP(=O)([O-])[O-])[C@@H](OP(=O)([O-])[O-])[C@H](OP(=O)([O-])[O-])[C@@H](OP(=O)([O-])[O-])[C@H]1OP(=O)([O-])[O-].[Na+].[Na+].[Na+].[Na+].[Na+].[Na+].[Na+].[Na+].[Na+].[Na+].[Na+].[Na+]` [Na12IP6, dodecasodium salt of inositol hexaphosphate], for which the “Decomposition by 31P-NMR” value is listed as “no significant decomposition”.
